The campaign covered roughly 350,000 compounds. About 31,000 (8.9%) were called active. Inconclusive results, whose numbers are uncertain, are shown with a selection of clear calls. Calls follow the shape of the dose curve; as a rule, active = well fitted inhibition curve with a large enough effect; inconclusive = small, poorly fitted or top-dose-only effect; inactive = no such curve, though single readings can be large or run the other way. Where the call is inconclusive, the potency comes from a doubtful curve fit.
These compounds were tested against Histone-lysine N-methyltransferase EHMT2 (Homo sapiens) (UniProt Q96KQ7) (assay: qHTS Assay for Inhibitors of Histone Lysine Methyltransferase G9a). Conditions: G9a H3K9 monomethylation, AlphaScreen, 2 h; activity, negative = inhibition: at 59 µM (top of the series) unless noted.
Method in brief: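 Signal arises when biotinylated H3K9 peptide, once monomethylated, bridges streptavidin donor and antibody-captured acceptor beads. Enzyme at 20 nM was preincubated 15 min with test compounds; peptide 500 nM and SAM 20 uM then reacted for 2 h.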
% is scaled to controls: 0 for no effect and ±100 for the full control effect; potency is read from the fitted curve at half-maximal effect; tags tell the direction and shape of the fitted curve.
Also: nearly all actives have a fitted effect of over 75% in size.

Chain of UniProt Q96KQ7 (Q96KQ7 whole entry, looked up): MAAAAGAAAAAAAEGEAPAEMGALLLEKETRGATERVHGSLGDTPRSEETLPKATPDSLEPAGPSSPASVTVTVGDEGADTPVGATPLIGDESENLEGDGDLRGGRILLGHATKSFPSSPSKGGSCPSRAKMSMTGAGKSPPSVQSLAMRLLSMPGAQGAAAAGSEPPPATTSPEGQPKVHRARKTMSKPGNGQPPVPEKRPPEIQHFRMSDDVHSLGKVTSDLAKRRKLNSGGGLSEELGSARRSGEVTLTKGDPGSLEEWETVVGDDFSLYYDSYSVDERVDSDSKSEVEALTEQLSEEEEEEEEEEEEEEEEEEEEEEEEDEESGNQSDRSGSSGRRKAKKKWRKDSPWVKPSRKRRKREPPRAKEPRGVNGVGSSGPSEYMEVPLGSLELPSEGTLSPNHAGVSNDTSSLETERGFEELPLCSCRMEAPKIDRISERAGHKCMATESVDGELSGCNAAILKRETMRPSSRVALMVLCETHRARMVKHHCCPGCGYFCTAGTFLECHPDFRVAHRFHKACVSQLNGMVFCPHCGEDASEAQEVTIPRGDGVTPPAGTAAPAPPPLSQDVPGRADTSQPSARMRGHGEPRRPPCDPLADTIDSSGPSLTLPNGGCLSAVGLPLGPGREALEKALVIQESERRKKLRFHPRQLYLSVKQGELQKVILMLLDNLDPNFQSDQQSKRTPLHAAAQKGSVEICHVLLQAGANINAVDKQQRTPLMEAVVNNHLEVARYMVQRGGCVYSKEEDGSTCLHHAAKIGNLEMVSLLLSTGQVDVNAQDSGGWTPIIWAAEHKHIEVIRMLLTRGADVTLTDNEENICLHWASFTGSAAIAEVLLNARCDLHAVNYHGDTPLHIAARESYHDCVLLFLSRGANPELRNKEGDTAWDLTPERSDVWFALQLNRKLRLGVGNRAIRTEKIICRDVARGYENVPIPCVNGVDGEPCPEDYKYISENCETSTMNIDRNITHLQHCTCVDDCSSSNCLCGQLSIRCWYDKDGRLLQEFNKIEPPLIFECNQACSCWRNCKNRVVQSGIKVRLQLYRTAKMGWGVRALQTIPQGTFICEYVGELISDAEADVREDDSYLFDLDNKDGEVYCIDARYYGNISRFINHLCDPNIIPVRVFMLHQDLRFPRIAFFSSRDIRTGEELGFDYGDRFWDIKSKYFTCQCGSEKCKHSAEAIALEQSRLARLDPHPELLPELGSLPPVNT

Compound | activity, negative = inhibition | Potency
CC1(C)CC(=O)c2cnc(N)nc2C1 | inactive: 32.4% [at 102 µM] | –
CC(NC(=O)c1cc(-c2ccc(Br)cc2)on1)c1ccccc1 (stereo not given) | – | inconclusive: 70.8 µM [inhibitor, partial curve]
Cc1n[nH]c(C)c1S(=O)(=O)N(CC(=O)NCc1ccccc1Cl)c1ccc(C(C)C)cc1 | inactive: -29.8% | –
CN(Cc1ccccc1)C(=O)CCn1c(=O)oc2ccccc21 | – | inconclusive: 89.1 µM [inhibitor, single point]
COc1ccc2[nH]cc(C(=O)CNc3nc(C)cs3)c2c1 | – | inconclusive: 25.1 µM [inhibitor, single point]
Clc1ccc(-c2cn3c(n2)CCC3)cc1 | – | inconclusive: 89.1 µM [inhibitor, single point]
Cn1c(=NC(=O)c2ccco2)sc2cccc(F)c21 | – | inconclusive: 17.8 µM [inhibitor, full curve, poor fit]
CCN(CC)CCOC(=O)c1ccc(Cl)cc1 | – | inconclusive: 89.1 µM [inhibitor, single point]
CNC(=S)Nc1cc(OC)ccc1OC | – | inconclusive: 35.5 µM [inhibitor, partial curve, poor fit]
COc1ccc(CNC(=O)c2ccc3[nH]c(C)c(C)c3c2)c(OC)c1 | inactive: -43.9% | –
Cc1noc2ncc(C(=O)c3cc(F)ccc3O)cc12 | – | inconclusive: 39.8 µM [inhibitor, partial curve, poor fit]
COc1cc(/C=C(/C#N)c2ccc(C)cc2)ccc1Oc1ccc([N+](=O)[O-])cn1 | inconclusive: -56.1% [inhibitor] | –
CN1CCN(c2ccc([N+](=O)[O-])cc2/C=N/NC(=O)c2ccc(F)cc2)CC1 | – | inconclusive: 20 µM [inhibitor, single point]
O=c1cc(CN2CCC(Cc3ccccc3)CC2)nc2sccn12 | – | inconclusive: 79.4 µM [inhibitor, partial curve, poor fit]
COc1ccccc1CNC(=O)C(C)n1nc(C)n2c(cc3occc32)c1=O (stereo not given) | inactive: 34.9% [at 102 µM] | –
Cc1cc(C)cc(NC(=O)CN(C)S(=O)(=O)c2ccc3[nH]c4c(c3c2)CCCC4)c1 | – | inconclusive: 8.91 µM [inhibitor, partial curve]
COc1ccc(C(=O)N2CCC(C(=O)O)CC2)c2ccccc12 | – | inconclusive: 89.1 µM [inhibitor, single point]
COC(=O)CC1C(=O)NCCN1C(=S)NC(=O)c1ccccc1[N+](=O)[O-] (stereo not given) | – | inconclusive: 39.8 µM [inhibitor, single point]
CC(C)OCCCNC(=O)C1CCC(CNS(=O)(=O)c2ccc(Cl)cc2)CC1 (stereo not given) | inactive: 12% [at 102 µM] | –
CCCCn1c(-c2cccc(Br)c2)nc2cc3[nH]c(=O)c(C(C)C)nc3cc21 | – | inconclusive: 89.1 µM [inhibitor, single point]
Cc1ccc2cc(C#N)c(SCC(=O)N3CCCC3)nc2c1 | inactive: 3.39% | –
COc1ccc(-c2csc(NC(=O)c3ccccc3S(C)(=O)=O)n2)cc1 | – | inconclusive: 39.8 µM [inhibitor, partial curve, poor fit]
Cc1ccc(C(=O)OCC(=O)NCc2ccco2)cc1C | – | inconclusive: 0.282 µM [inhibitor, full curve]
CC(=O)N1CCN(c2ccc(NCc3cccs3)cc2)CC1 | – | active: 6.31 µM

Compound | activity, negative = inhibition | Potency
Cc1ccc2c(c1)NC(=O)C(CC(=O)NCCCN1CCCCC1C)O2 (stereo not given) | – | inconclusive: 89.1 µM [inhibitor, single point]
COc1ccccc1/C=C/C=N/N1CCN(c2ccccn2)CC1 | inactive: 22.6% [at 0.501 µM] | –
COc1ccc(OC)c(NC(=O)Cn2c(CCC(=O)O)ccc2-c2ccc(C)cc2)c1 | – | inconclusive: 35.5 µM [inhibitor, partial curve, poor fit]
CN(C)C(=O)c1ccc(-c2cncnc2-n2ccnc2)cc1 | inactive: 0.314% [at 0.501 µM] | –
N#C/C(=C\c1ccc(Cl)cc1)c1nc(-c2ccco2)cs1 | – | inconclusive: 17.8 µM [inhibitor, single point]
CCN(Cc1ccc(OC)c(F)c1)C(=O)CCl | – | inconclusive: 56.2 µM [inhibitor, partial curve, poor fit]
O=C(CN1C(=O)CSc2ccccc21)NC1CCCC1 | inactive: 3.52% [at 102 µM] | –
Cn1cc(/C=C/C(=O)N2CCCC(C(=O)c3ccc(C(F)(F)F)cc3)C2)cn1 (stereo not given) | – | inconclusive: 79.4 µM [inhibitor, partial curve, poor fit]
CCCc1nnc(NC(=O)Cn2cnc3ccccc3c2=O)s1 | inconclusive: -86.4% [inhibitor] | –
NC(=O)c1nsc(C(=O)N(Cc2ccc(F)cc2)C(C(=O)NC2CCCC2)c2ccco2)c1N (stereo not given) | – | inconclusive: 89.1 µM [inhibitor, single point]
CC(C(=O)O)n1nc(-c2ccccc2)c2ccccc21 (stereo not given) | inactive: 2% [at 102 µM] | –
COc1ccccc1N1CCN(CC(=O)Nc2ccnn2C2CCCC2)CC1 | inactive: 10.3% [at 2.33 µM] | –
N#CC1=C2SCN(c3ccccc3)CN2C(=O)CC1c1cccs1 (stereo not given) | – | active: 2.51 µM
CCc1ccc(NC(=O)CC2C(=O)N(c3ccc(Cl)cc3)C(=O)N2Cc2cccs2)cc1 (stereo not given) | – | inconclusive: 6.31 µM [inhibitor, partial curve, poor fit]
CC(=O)CC(=O)Nc1ncccn1 | – | inconclusive: 89.1 µM [inhibitor, single point]
CCCOc1ccc(C2c3c(oc4cc(C)c(C)cc4c3=O)C(=O)N2CCCN(C)C)cc1 (stereo not given) | – | inconclusive: 70.8 µM [inhibitor, partial curve, poor fit]
CS(=O)(=O)N(CC(=O)N1CCCCCC1)c1ccc2c(c1)OCCO2 | – | inconclusive: 39.8 µM [inhibitor, partial curve, poor fit]
O=C(O)c1nc2ccccc2nc1C(=O)O | inconclusive: -102% [inhibitor] | –
O=C(CSc1nc2ccccc2s1)N1N=C(c2cccs2)CC1c1ccc(F)cc1 (stereo not given) | inactive: 13.2% | –
NC(=O)c1ccc(NC(=O)CSc2nnc(-c3cccnc3)n2Cc2ccco2)cc1 | – | inconclusive: 100 µM [inhibitor, single point]
COc1ccccc1OCC(=O)O/N=C(\N)c1ccccn1 | – | inconclusive: 56.2 µM [inhibitor, partial curve]
N#Cc1cc2cc3c(cc2nc1SCC(=O)N1CCCC1)OCCO3 | – | active: 28.2 µM
CN(Cc1nc2ccccc2c(=O)[nH]1)C(=O)c1cc(C2CC2)nn1-c1ccccc1 | – | inconclusive: 0.631 µM [inhibitor, partial curve, poor fit]
Cc1cc(C)n(-c2ccc(C)c(Cl)c2)n1 | inactive: 15.3% | –

Compound | activity, negative = inhibition | Potency
CCN(/N=C/C=C/c1ccccc1)c1cc(=O)n(C)c(=O)[nH]1 | inactive: -11.4% [at 102 µM] | –
Cc1ccc(S(=O)(=O)Nc2cc3c(cc2C#N)OCO3)cc1C(N)=O | inactive: 14.1% [at 102 µM] | –
Cc1c(Br)c([N+](=O)[O-])nn1CC(=O)N1CCc2ccccc21 | – | inconclusive: 89.1 µM [inhibitor, partial curve, poor fit]
CCCn1nc2cc(C(=O)NCc3ccccc3)ccc2c1OCC | – | inconclusive: 10 µM [inhibitor, partial curve, poor fit]
CCOC(=O)CC1=Nc2ccccc2NC(=O)C1 | inactive: 0.519% [at 12.7 µM] | –
CCCS(=O)(=O)c1c(S(=O)(=O)CCC)c2c(N)cccn2c1C(=O)c1ccccc1 | – | inconclusive: 28.2 µM [inhibitor, single point]
CC[N+]1(C)CC2CCC(C)(C1)C2(C)C (stereo not given) | – | inconclusive: 14.1 µM [inhibitor, partial curve, poor fit]
COc1ccc(OC)c(S(=O)(=O)Nc2cc3c(C(C)=O)c(C)oc3c3ccccc23)c1 | – | inconclusive: 31.6 µM [inhibitor, partial curve, poor fit]
O=C(NCc1ccccc1CN1CCCCC1)c1ccc(Cl)cc1N1CCCC1=O | – | active: 1 µM
C/C(O)=C(\N=Nc1cc(C)ccc1O)C(N)=O | – | inconclusive: 89.1 µM [inhibitor, partial curve, poor fit]
CC(=O)c1ccc(-n2nnnc2SCC(=O)Nc2sc(C)c(C)c2C#N)cc1 | inactive: -14.1% [at 102 µM] | –
Cc1ccc(OCC(=O)Nc2ccc(Cl)c(-c3nc4ccccc4[nH]3)c2)cc1C | – | inconclusive: 31.6 µM [inhibitor, partial curve, poor fit]
COc1ccc(S(=O)(=O)N(CC(=O)N(C)Cc2ccccc2)c2ccc(Cl)cc2)cc1 | inactive: 16.3% | –
O=C(COc1ncnc2cc([N+](=O)[O-])ccc12)NCc1ccc2c(c1)OCO2 | inactive: 37.6% | –
Cc1ccc(S(=O)(=O)N2CCC(C(=O)OCC(=O)NC3(C#N)CCCCC3)CC2)cc1C | – | inconclusive: 44.7 µM [inhibitor, partial curve]
CCC1CN(C(=O)N2CCC(C(=O)NCCC3=CCCCC3)CC2)c2cc(C)ccc2O1 (stereo not given) | – | inconclusive: 25.1 µM [inhibitor, partial curve, poor fit]
O=C(COC(=O)/C=C/c1ccc([N+](=O)[O-])cc1)NCc1ccco1 | inactive: 10.2% [at 102 µM] | –
O=C(CN1C(=O)C2CCCCC2C1=O)Nc1nc(-c2ccccn2)cs1 (stereo not given) | – | inconclusive: 3.16 µM [inhibitor, partial curve, poor fit]
COC(=O)c1sc(S(=O)(=O)NC(C)C(=O)O)c(C(=O)OC)c1C (stereo not given) | – | inconclusive: 50.1 µM [inhibitor, partial curve, poor fit]
CCOC(=O)c1c(/N=C/c2ccccc2O)sc2c1CCC2 | – | active: 70.8 µM
O=C(Cc1ccc(Cl)cc1)Nc1ccc(S(=O)(=O)Nc2ncccn2)cc1 | – | active: 79.4 µM
CCOC(=O)C(=CNNc1ccccc1)C(=O)OCC | – | active: 2 µM

Source: PubChem BioAssay AID504332 (National Center for Advancing Translational Sciences (NCATS), 2011)
